Experimental data published in the supplement of paper PMC10126150.
Sequences with one replicate were seen in a single cluster, so their values are uncertain.

Tested on: ATP
Assay: switch fluorescence ratio, 500 uM ATP over buffer (Cy3 cluster intensity, sum of 5 cycles each) (fold (ratio)); higher = stronger signal-on switching upon ATP binding; sequences stand for … in TCGTCGGCAGCGTCAGATGTGTATAAGAGACAGTTTTTTTTTTTTTTTTTTTTTTTTT…TC
Conditions: aptamer strand: ATP DNA aptamer (quencher-CACCTGGGGGAGTATTGCGGAGGAAGG + anchor), 100 nM annealed; ATP concentration: 500 uM; one replicate
How it was run: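 For every switch-domain sequence, the fluorescence ratio is the mean of per-cluster values, each being summed target-cycle Cy3 intensity over summed buffer-cycle Cy3 intensity. Clusters outside 100-1000 RFU were excluded. On a modified Illumina MiSeq flow-cell, the Cy3-labelled switching-strand clusters were annealed to 100 nM quencher-labelled ATP aptamer, imaged in selection buffer and then after 15 min with 500 uM ATP at 22 °C. Five such cycles were run, with NaOH stripping and re-annealing between them.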
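Further: ATP exposure 15 min at 22 °C before imaging.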

Sequence	switch fluorescence ratio
TGGCTCGAGA	0.997
GCTACTTGCA	1.04
CTGTAAAGGT	0.991
ACGCATTCGG	1.18
GGTAGTTCTC	1.02
CACGCATAAT	1.56
GTTTCCATTA	0.964
GGTATATTTC	1.01
TAACAGGGCG	1.01
AATTGTCCCG	0.991
GGTCGTAATC	1.16
TTTGCTGCGT	1.02
TAAGGCAGTT	0.996
ATTGAGGACG	1.07
GAGAACCGTA	1.05
ATCGTTGGCA	1.02
CGCGGACATT	1.05
AAGAAGCTGG	0.974
ACGAGGGGTT	0.993
CGGCTAACTG	0.993
CGAAGGGTAC	1.85
TGCTCGGATT	0.972
CCGGTTATTT	1

Sequence	switch fluorescence ratio
TCGCCTACTG	1.05
AATGGATTCC	1.02
GACATTTGGG	0.946
TTGGCTATCT	0.964
TCCGTTCCGT	1.13
GCCAGTAGCC	0.946
GGTTGTCCCG	0.98
CTAAAATTGT	0.997
TGTTATAGAG	1.01
TCTGTAAAAG	0.988
GGAGAAAAT	0.966
ACGTTTCGGG	1
AATCGTGGA	0.975
CTAAAATCTT	1
ACTAGCGGCA	1
TCGCTTGTCT	0.956
CTTCAAACGG	1.05
CGGATGTCGC	0.941
TTTCCAAAG	1.06
CGGTCCCGGT	1.09
GAAGTCACTG	0.971
CGTGGAGTTG	0.997
CGCTTTTTAT	0.996

Sequence	switch fluorescence ratio
CTTTAGGGAG	1.01
CTAATACGGT	0.998
CCTCCCTCGT	2.09
CGTATCGGTC	0.994
CAATTAGAAG	0.972
GCTGGTGCCA	1.02
TAGACCATAG	0.982
GGCCAGAGGC	0.978
ACTGGATTCT	0.977
CGAAATAGTG	1.03
TTGTCGAATC	1.09
ATATGGTAGA	1.04
CACTGTATTT	1.28
TTGATGCGAT	1.16
TCACGCTTG	1.02
AGTGAGGGTG	0.999
TGAACATTGT	1.09
GCCAGATCAA	1.03
AAGTGCTC	1
TGCATATTCG	1.02
AGTCGAGTGA	0.957
TTCTATTGCC	1.05
GACACAGGTT	1.16

Sequence	switch fluorescence ratio
GAGCTGTGGA	1.03
TGAGGGCCAA	0.999
AACGGTTAAT	0.958
ATACAGGACG	1.1
AGTAGCGAGT	1.01
GGTTTAACAG	0.973
AGACTGACTA	1.11
CGTCAAACTA	1.02
GGTGTCCCCT	1.08
AATGCGACTG	0.999
ACGGTATTGT	1.13
AACGGCAAT	2.6
TTCTCTGTCA	1.05
GGCCTCTATA	1.04
AAACTGGTTT	1.03
GGGTTCCAAT	0.998
GGGAAACAGC	1.01
CGCTGATGTG	0.975
CTGATTGCTC	1.07
CTGAACGCTG	2.94
TTGACGGGAA	1.05
GCATGCTGT	0.995
AGGGAAGGAG	0.992

Sequence	switch fluorescence ratio
CGAGGGCTC	1.02
GGGAACTAAT	0.982
GGGTGCAGGT	0.975
CCAATAGATG	0.997
TCTGGCTCGA	0.988
CTCTATAGAC	1.82
GTGTAGATTG	1.03
AAGTGTCAAT	1.02
GGTAATGTAG	1.03
GTTTGCCGAC	1.02
CGACCGCGGT	1.06
CTGGTCGGTC	0.972
GACCTGCT	1.02
TTAAAATAG	1
TCGGGCAATT	1.63
GAATGCCTAG	1.01
TTCCTAGTG	1
TTCATTTGGC	1.01
TCCGAGCCCG	1.09
CATTTTGTCA	1.06
ACGTAAAGA	1.06
ACCTCGCTC	1.5
GAGGCCTGTT	1.5

Sequence	switch fluorescence ratio
GGTCTGAACT	0.967
TTGTATCTTA	0.963
GGCTGCGTAC	1.63
ATGGGTCGCC	0.972
GAACGGAGAG	1.06
ACGCGCATGG	0.978
GTTAATAGGT	1.02
TGGGGCCCCC	0.992
AACTCGCTGA	1
GGGGATTGCA	1.04
AAAGAGCCGA	0.954
TAATATCCTG	1
AACTAGCCGA	1.05
ACCTAGGCCA	1.03
GTATGACCGA	0.908
TTCTCATGGA	1.03
CAGGGTGCCT	1.04
TTGGTAGGCA	0.999
CTTTTTTAGC	0.968
CGGGCATCTG	1.04
TTCGTGATTC	1.22
ATGTTAGAGA	1.01
GAAAGATGTT	1

Sequence	switch fluorescence ratio
GAACTTGGAC	1.02
GTAAAAAGCA	0.992
CAGGGTAAAT	0.97
TACGTACGCG	1.39
CGGTCCCGCA	0.99
TTTCAGCACT	1.06
AAAAGTGGAG	1.01
ATGAGAGTT	1.02
TGGCATTCCT	1.11
CCAGACTCAG	1
CATTCGGGCG	1.01
GCTATAGATT	1
GATTTTGATT	1
CTGCCTGTGT	1.06
TATGCTTTT	1.01
ACGCGTGAGT	1.04
CCAAATTTTG	0.971
GCAGAAACGC	0.971
ATCTAAGTCG	0.999
